Test results as given in PubChem BioAssay AID686979 (National Center for Advancing Translational Sciences (NCATS), 2013).
Values joined by “and” are separate entries in the source; they are usually repeats but may differ in a detail not shown here. Identical values can stand only once. Hit rate of the full screen: of about 420,000 compounds, about 50,000 (12%) were called active. Inconclusive results, whose numbers are uncertain, are shown with a selection of clear calls. The call rests on the fitted dose curve; in most records, active means well fitted inhibition curve with a large enough effect; inconclusive means small, poorly fitted or top-dose-only effect; inactive means flat fitted curve, though single readings scatter. Potencies beside an inconclusive call are fits to weak or partial responses and may not hold up.

assay: qHTS for Inhibitors of human tyrosyl-DNA phosphodiesterase 1 (TDP1): qHTS in cells in presence of CPT; conditions: chicken DT40 Tdp1-/-;hTDP1 cells + 20 nM CPT, ATP luminescence, 48 h; activity change, negative = growth inhibition: at 46.2 µM (top of the series) unless noted; further: nearly all actives have a fitted effect of over 55% in size
Method in brief: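 Chicken DT40 Tdp1-/- cells complemented with human TDP1, 400 cells/well, exposed to compounds plus 20 nM camptothecin for at least 48 h at 37 C; viability read as ATP content by CellTiter-Glo luminescence.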
On the % scale 0 is the no-effect control and ±100 the full control effect; potency means the concentration at half of the fitted maximal effect; tags describe the fitted curve by direction and shape.

Structure (SMILES) | Potency | activity change, negative = growth inhibition
CC1CC(C)CN(c2ncc3c(n2)CC(c2ccccc2)CC3=O)C1 (configuration not stated) | active: 11.6 µM | 
Cc1c(Cl)ccc2sc(NC(=O)C3CC3)nc12 | inconclusive: 20.6 µM [inhibitor, single point] | 
COc1ccc(S(=O)(=O)N2CCN(Cc3nc4ccc(C)cc4o3)CC2)cc1OC | inconclusive: 18.4 µM [inhibitor, single point] | 
Clc1nnc(N/N=C/c2ccccc2)c2ccccc12 | inconclusive: 35.5 µM [inhibitor, single point] | 
O=C(CSc1nc2ccccc2o1)N/N=C/c1ccco1 | inconclusive: 23.1 µM [inhibitor, single point] | 
Cc1cccc(CNC(=O)Cc2csc3ccccc23)c1 | inactive | 
O=S(=O)(c1ccccc1)N1CCC(Oc2ccc(-n3cnnn3)cc2)CC1 | inconclusive: 20.6 µM [inhibitor, single point] | 
O=C(NC(=S)Nc1ccc(C(F)(F)F)cc1)c1csnn1 | inconclusive: 6.51 µM [inhibitor, full curve, poor fit] | 
COc1ccc(C)c2sc(=NC(=O)c3ccc(C(C)=O)cc3)n(C)c12 | active: 14.6 µM | 
c1coc(CNc2c3c(nc4ncnn24)CCC3)c1 |  | inconclusive: -32.6% [inhibitor]
CC(C)c1onc(C(=O)NC2CCCCC2)c1[N+](=O)[O-] | active: 20.6 µM | 
Cc1cc(Cl)ccc1NS(=O)(=O)c1ccc2c(c1)CCN2S(C)(=O)=O | inconclusive: 29.1 µM [inhibitor, single point] | 
COc1ccc(Nc2nc(N)c([N+](=O)[O-])c(NC3CCCCC3)n2)cc1 | active: 16.4 µM | 
O=C(Oc1ccccc1)N1CCC2(CC1)CCN(c1cccc(-c3ccccc3)c1)CC2 | inconclusive: 29.1 µM [inhibitor, single point] | 
COc1cc(C(=O)NCC2CCCO2)ccc1OCc1ccc(Cl)cc1Cl (configuration not stated) | inconclusive: 29.1 µM [inhibitor, single point] | 
CC(=O)N1N=C(c2cccs2)CC1c1cccc([N+](=O)[O-])c1 (configuration not stated) | inconclusive: 16.4 µM [inhibitor, single point] | 
CCCCn1c(CNC(=O)c2cccs2)nc2ccccc21 | inactive | 
COc1ccc(NC(=O)C2CC(=O)N(Cc3ccc(C)cc3)C2)cc1S(=O)(=O)N1CCCCC1 (configuration not stated) | inconclusive: 29.1 µM [inhibitor, single point] | 
Cc1cccc(Nc2c3c(nc4ccccc24)CCC3)c1 | active: 14.6 µM | 
O=C(Nc1ccccc1)C1=C(O)CC(c2ccoc2)CC1=Nc1ccccc1 (configuration not stated) | inconclusive: 29.1 µM [inhibitor, partial curve] | 
COc1ccccc1CN1CCOc2ccc(CN3CCCCC3CO)cc2C1 (configuration not stated) |  | inactive: -4.07% [at 9.04 µM]
Cc1ccc(Cc2c(-c3ccco3)nc3ccc(Br)cn23)cc1 | inconclusive: 25.9 µM [inhibitor, single point] | 
CC(C)CC1Nc2ncnc(N3CCN(c4ccccn4)CC3)c2N(Cc2ccc(Cl)cc2)C1=O (configuration not stated) | inconclusive: 29.1 µM [inhibitor, single point] and inconclusive: 18.4 µM [inhibitor, single point] | 
O=C(COC(=O)COc1ccc(Br)cc1)NC1CCS(=O)(=O)C1 (configuration not stated) | inactive | 

Structure (SMILES) | Potency | activity change, negative = growth inhibition
COc1c(C)cc(Br)cc1C(=O)Nc1ccccc1C | inconclusive: 29.1 µM [inhibitor, single point] | 
C[C@@H]1[C@H](c2ccccc2)OCCS(=O)(=O)N1Cc1cccc(C(F)(F)F)c1 | inconclusive: 35.5 µM [inhibitor, single point] | 
O=S(=O)(c1ccccc1)N1N=C(c2cccs2)CC1c1ccc(Br)cc1 (configuration not stated) | active: 23.1 µM | 
CC(=C\c1ccccc1)/C=C1/SC(=S)N(CCCC(=O)O)C1=O | inactive | 
Oc1ccc(-c2nccc(-c3cccs3)n2)cc1 | inconclusive: 16.4 µM [inhibitor, partial curve, poor fit] | 
CCOc1ccc(S(=O)(=O)N2CCC(C(=O)N3CCN(Cc4ccccc4)CC3)CC2)cc1 | inconclusive: 29.1 µM [inhibitor, partial curve, poor fit] | 
COc1cccc(C(=O)N2CC(=O)Nc3ccc(C)cc3C2c2ccc(F)cc2)c1OC (configuration not stated) | inconclusive: 16.4 µM [inhibitor, partial curve, poor fit] | 
CCOC(=O)c1ccc(N/C=C2/CCCC(C)C2=O)cc1 (configuration not stated) | inconclusive: 5.17 µM [inhibitor, single point] | 
CCOC(=O)C1CCN(C(=O)C(C)c2ccc([N+](=O)[O-])cc2)CC1 (configuration not stated) | inconclusive: 0.517 µM [inhibitor, full curve, poor fit] | 
NC(=S)NNc1cc(Cl)cc(Cl)c1 | active: 13 µM | 
Cc1ccc(Nc2cc(=O)[nH]c(=O)[nH]2)cc1C | inconclusive: 18.4 µM [inhibitor, single point] | 
Cc1ccc(CS(=O)Cc2ccc(C(=O)NCC(C)c3ccccc3)o2)cc1 (configuration not stated) |  | inconclusive: -31.3% [inhibitor]
CCCN(CCC)CCCNC(=O)c1cc2c(=O)n(CC)c3ccccc3c2s1 | inconclusive: 29.1 µM [inhibitor, single point] | 
Cc1c(Cl)cccc1-n1c(SCC(=O)NCc2ccccc2)nc2n[nH]c(C)c2c1=N | active: 14.6 µM | 
NC(=O)c1nc2c([nH]c1=O)CCCC2 | inactive | 
O=C(NCCc1ccc(Cl)cc1)c1ccc2nccnc2c1 | inconclusive: 25.9 µM [inhibitor, single point] | 
NC(Cc1ccc(F)cc1)c1csc(Nc2ccc(C(=O)NCCCO)cn2)n1 (configuration not stated) | inconclusive: 25.9 µM [inhibitor, single point] | 
N#CC1(C#N)C(c2ccccc2)OC23CCCCC2C1(C#N)C(=N)O3 (configuration not stated) | inactive | 
O=C(O)/C=C/C(=O)N1CCN(C(=O)/C=C/C(=O)O)CC1 | inactive | 
O=C(NC1CCCCC1)NC1(C(=O)N2CCN3CCCC3C2)CCCCC1 (configuration not stated) | inactive | 
Cc1cc(N/N=C/c2ccc(O)cc2O)nc(-n2nc(C)cc2C)n1 | active: 0.231 µM | 
C(=C\c1nc2ccccc2[nH]1)/c1ccccc1 | active: 14.6 µM | 
CC1(C(=O)NS(=O)(=O)Cc2ccccc2C(F)(F)F)CCN1C(=O)Cc1ccccc1 (configuration not stated) | inactive | 
COc1cccc(C2CC(c3cccs3)=NN2C(=O)CSc2nc3c(cnn3-c3ccc(F)cc3)c(=O)[nH]2)c1OC (configuration not stated) | active: 23.1 µM | 

Structure (SMILES) | Potency | activity change, negative = growth inhibition
CC1=C(CC(=O)O)c2cc(F)ccc2/C1=C/c1ccc(S(C)=O)cc1 (configuration not stated) | inactive | 
COc1ccc(NC(=O)N2CCc3ccccc3C2)cc1OC | inactive | 
COc1cc(-c2nc(C(F)(F)F)c(OC)o2)cc(OC)c1OC | inconclusive: 7.31 µM [inhibitor, partial curve] | 
CC/C(O)=C1\C(=O)CCCC1=NCCc1c(C)[nH]c2ccc(C)cc12 | inconclusive: 29.1 µM [inhibitor, single point] | 
CCC(O)CNC(=O)c1cnn(-c2nccc(-c3cc(C)sc3C)n2)c1C1CC1 (configuration not stated) | inconclusive: 25.9 µM [inhibitor, single point] | 
CCOC(=O)N1CCN(C(=O)c2ccc3nc(N4CCC(C)CC4)sc3c2)CC1 | inconclusive: 29.1 µM [inhibitor, single point] | 
CC(=O)N1c2ccc(S(=O)(=O)NCCC(=O)Nc3ccc(C)cn3)cc2CC1C (configuration not stated) | inactive | 
CC1(c2ccccc2)NC(=O)N(CC(=O)N(CC(=O)Nc2ccccc2C(F)(F)F)Cc2ccco2)C1=O (configuration not stated) | inactive | 
Nc1ccccc1C#CC(=O)c1ccccc1 | active: 1.3 µM | 
O=C(CCC(=O)Nc1ccccc1Cl)NNC(=O)Nc1cccc([N+](=O)[O-])c1 | inactive | 
Cc1ccc(N2CC(C(=O)N/N=C/c3cccc([N+](=O)[O-])c3)CC2=O)cc1 (configuration not stated) | inconclusive: 18.4 µM [inhibitor, single point] | 
Cc1ccc(CS(=O)(=O)c2ccc(C(=O)N3CCCCC3)cc2[N+](=O)[O-])cc1 | inconclusive: 29.1 µM [inhibitor, single point] | 
Cc1ncc2c(c1CNC(=O)c1ccc3c(c1)OCO3)CCN(C(=O)/C=C/c1ccc(Cl)cc1)C2 |  | inactive: -8.64% [at 9.04 µM]
CCC1CCCCN1S(=O)(=O)c1ccc(NC(=O)c2nc(SC)ncc2Cl)cc1 (configuration not stated) | active: 20.6 µM | 
COc1ccc([N+](=O)[O-])cc1NCc1ccco1 | inactive | 
Cc1oc2ncnc(N3CCCCC3)c2c1C(=O)Nc1cccc(Cl)c1C | active: 16.4 µM | 
CCc1ccc(N=CC23c4ccccc4C(c4ccccc42)C2C(=O)N(c4ccc(OC)cc4)C(=O)C23)cc1 (configuration not stated) | inconclusive: 29.1 µM [inhibitor, single point] | 
CS/C(=N\S(=O)(=O)c1cccs1)NC(=O)CSc1nc2ccccc2s1 | inconclusive: 20.6 µM [inhibitor, partial curve] | 
FC(F)(F)c1nnc2sc(-c3ccco3)nn12 | inactive | 
CCNc1nc(C)nc2c1oc1ccccc12 | active: 0.58 µM | 
CC(C)OC(=O)CSc1nnc(-c2ccc(C(C)(C)C)cc2)n1N | inconclusive: 16.4 µM [inhibitor, single point] | 
CCc1ccccc1NS(=O)(=O)c1ccc(-c2coc(C)n2)cc1 | inconclusive: 29.1 µM [inhibitor, single point] | 
Cc1ccc(C(=O)C2CCN(CC(=O)N3CCN(c4ccc(F)cc4)CC3)CC2)cc1 | inconclusive: 16.4 µM [inhibitor, single point] | 
COc1cc(OC)c(CN2CCc3c([nH]c4ccccc34)C2)cc1Br | inconclusive: 25.9 µM [inhibitor, partial curve] | 
